Screen size: about 310,000 compounds; about 2,200 (0.71%) showed an effect of 50% or more. Effects have a minus sign here. The list shows a part of the results.
biological target: human ether-à-go-go-related gene (hERG) potassium channel (human, UniProt Q12809); experiment: primary screen, population patch clamp on CHO cells stably expressing hERG
Sequence (Q12809 whole entry, looked up): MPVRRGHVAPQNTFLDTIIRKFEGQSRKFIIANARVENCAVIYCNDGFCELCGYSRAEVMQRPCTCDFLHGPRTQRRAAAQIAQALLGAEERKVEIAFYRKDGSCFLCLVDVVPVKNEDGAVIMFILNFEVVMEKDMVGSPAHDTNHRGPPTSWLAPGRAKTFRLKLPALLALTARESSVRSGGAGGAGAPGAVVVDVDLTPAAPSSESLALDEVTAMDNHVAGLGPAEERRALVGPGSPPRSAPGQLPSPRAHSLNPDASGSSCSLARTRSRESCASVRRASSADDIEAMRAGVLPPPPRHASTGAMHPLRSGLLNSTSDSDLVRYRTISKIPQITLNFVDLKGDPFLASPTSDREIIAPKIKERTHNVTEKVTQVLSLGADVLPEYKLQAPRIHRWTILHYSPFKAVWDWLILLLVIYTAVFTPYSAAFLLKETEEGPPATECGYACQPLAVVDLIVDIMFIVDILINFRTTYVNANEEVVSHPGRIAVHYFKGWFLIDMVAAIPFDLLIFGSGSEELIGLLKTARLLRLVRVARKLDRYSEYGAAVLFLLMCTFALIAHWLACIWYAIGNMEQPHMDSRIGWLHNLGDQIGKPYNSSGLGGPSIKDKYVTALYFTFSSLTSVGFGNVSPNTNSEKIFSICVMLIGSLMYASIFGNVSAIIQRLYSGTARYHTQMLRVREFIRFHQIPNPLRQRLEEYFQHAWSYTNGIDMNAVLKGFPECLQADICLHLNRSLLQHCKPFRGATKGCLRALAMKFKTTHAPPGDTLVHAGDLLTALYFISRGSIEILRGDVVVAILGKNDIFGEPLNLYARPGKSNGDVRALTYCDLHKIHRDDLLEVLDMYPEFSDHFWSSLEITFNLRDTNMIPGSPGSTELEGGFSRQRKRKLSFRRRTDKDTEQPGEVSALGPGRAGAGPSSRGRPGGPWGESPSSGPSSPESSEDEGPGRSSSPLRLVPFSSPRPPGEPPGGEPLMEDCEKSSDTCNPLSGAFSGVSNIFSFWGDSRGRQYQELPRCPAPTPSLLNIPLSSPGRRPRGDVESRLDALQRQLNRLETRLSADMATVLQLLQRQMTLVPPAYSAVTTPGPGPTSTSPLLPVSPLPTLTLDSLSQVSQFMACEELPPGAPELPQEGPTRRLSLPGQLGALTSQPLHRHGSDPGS

SMILES | hERG current change (%, negative = inhibition) at 1uM
Cc1nc2ccc(S(=O)(=O)NCC(=O)Nc3cccc(F)c3)cc2s1 | 8.18%
Cc1ccc(N(CC(=O)NCc2ccccc2)C(=O)CCC(=O)Nc2ccccn2)c(C)c1 | 11.7%
Cc1ccc(-c2nnc3ccc(SCC(=O)N4CCCc5ccccc54)nn23)cc1 | 11.8%
O=C(NNC(=O)c1ccccc1F)c1ccc(Cl)c(S(=O)(=O)N2CCOCC2)c1 | 9.72%
Cc1cc(C)c(S(=O)(=O)/N=C2/C=C(Sc3ncn[nH]3)C(=O)c3ccccc32)cc1C | 15.2%
CCOC(=O)c1cnn(-c2ccccc2)c1-n1cccc1C(=O)C(=O)N(CC)CC | 8.14%
Cc1nc2n(n1)C(c1ccccc1)C1=C(CC(c3ccco3)CC1=O)N2 (stereo not shown) | 8.8%
COc1ccc(CNC(=O)c2ccc3ccccc3n2)cc1OC | 16.9%
CN1CCN(c2c(N)c(=O)oc3ccccc23)CC1 | -7.56%
O=c1c(/C=N/OCc2ccc(Cl)cc2Cl)c[nH]n1-c1cccc(Cl)n1 | 13.8%
Cn1nnnc1SCC(=O)N1CCc2ccccc2C1 | 6.58%
COCC(=O)N1CCN(c2cccc(C(F)(F)F)c2)CC1.Cl | 6.09%
CCCCn1c(Cn2nc(C(=O)O)c3ccccc3c2=O)nc2cc(S(N)(=O)=O)ccc21 | 12.7%
CCNC(=S)N(CCCO)Cc1cc2cc3c(cc2[nH]c1=O)OCCO3 | 11.4%
O/N=C\c1cccn1-c1ccc(Br)cc1 | 10.6%
COc1cccc(OC)c1NC(=O)C1CCCN1C(=O)Nc1cccc(Cl)c1 (stereo not shown) | 6.74%
O=[N+]([O-])c1ccc(N=Cc2c(O)ccc3ccccc23)cc1 | 7.86%
Cc1ccc2c(C(=O)CN3CCCCC3CCO)c(C)[nH]c2c1 (stereo not shown) | 6.91%
CC(C)CCN1CCN(Cc2ccc(N3CCNC3=O)cc2)CC1CCO (stereo not shown) | -2.5%
CCCCn1c(N)c(N(CCOC)C(=O)c2ccc(N3C(=O)CCC3=O)cc2)c(=O)[nH]c1=O | 9.15%
Cc1ccc(CNC(=O)c2ccccc2NS(=O)(=O)c2ccc(Cl)nc2)cc1 | 9.75%
Cc1cc([N+](=O)[O-])c(C)cc1-c1ccc(/C=N/NC(=O)c2cccnc2)o1 | 2.63%

SMILES | hERG current change (%, negative = inhibition) at 1uM
CSCCC(=O)N1CC[C@@H](N2CCN(c3ccccc3F)CC2)[C@H](O)C1 | 8.82%
Cc1cccc(NC(=O)[C@H](Cc2ccccc2)NC(=O)[C@@H]2Cc3ccccc3CN2)c1 | 11.1%
N#Cc1c(-c2ccccc2)c(C#N)c2nc3ccccc3n2c1N | 11.6%
C=Cn1ccnc1P(=S)(c1nccn1C=C)c1nccn1C=C | 16.5%
CCCCN(C)C(=O)c1nc2ccccn2c1CNCCCn1ncc2ccccc21 | -13.9%
CCC/C(=N\NC(=O)c1ccco1)c1ccc(Cl)s1 | 9.1%
CN(C)CCOCCOc1ccc(Cl)cc1C(C)(C)C.O=C(O)C(=O)O | 19.6%
Cc1ccc2c(c1)c1cccc3c1n2CCN3CCC(N)=O | 6.55%
O=C(N/N=C/c1cc2cc3c(cc2nc1Cl)OCO3)c1ccncc1 | 15.6%
COc1ccc(/C=C/C(=O)OCC(=O)NCCC2=CCCCC2)cc1 | 11%
Cc1occc(=O)c1OCc1c(Cl)cccc1Cl | 12.9%
C[C@@]12C(=O)N(c3cccc(F)c3)C(=O)N1[C@H](c1ccc(F)cc1)[C@@H]1C(=O)N(C3CCCCC3)C(=O)[C@@H]12 | 11.4%
CC(C)(C)NC(=O)NC(=O)COC(=O)c1cc(=O)[nH]c2ccccc12 | 0.89%
C=CCn1c(CSCc2ccccc2)nnc1SCC(=O)N1CCN(c2ccccc2)CC1 | 1.93%
CC1SC2(NC1=O)C1CC3CC(C1)CC2C3 (stereo not shown) | 2.81%
Cl.O=C(c1ccc(Br)cc1)C(CN1CCOCC1)c1ccccc1 (stereo not shown) | 11%
COc1cccc(CN(C)C(=O)CCNC(=O)c2ccco2)c1 | 8.78%
O=c1nc(/C=C/c2ccc(Cl)cc2Cl)cc(C(F)(F)F)[nH]1 | 2.83%
O=S(=O)(Nc1ccccc1Cl)c1cc(NC(=S)NCCN2CCOCC2)ccc1Cl | 6.34%
COc1ccccc1Cn1c(=O)c2ccccc2n2c(SCC(=O)N3CCCCC3)nnc12 | 14.6%
COc1ccc(C2N(Cc3ccccc3)CCN2Cc2ccccc2)cc1[N+](=O)[O-] | 5.91%
O=S(=O)([N-]c1nc2ccccc2nc1-n1cc[n+](Cc2ccccc2)c1)c1ccc(Cl)cc1 | 10.6%

SMILES | hERG current change (%, negative = inhibition) at 1uM
Cc1cc(C)nc(NC(=S)Nc2cccc(F)c2)c1 | 6.3%
Cc1cc(C)n(-c2cccc(Cl)c2C#N)n1 | -0.42%
COc1ccccc1NC(=O)CC(NCCN(C)C)C(=O)O (stereo not shown) | 24.7%
CCOC(=O)C1=C(O)C(=O)N(c2ccc(S(N)(=O)=O)cc2)C1c1ccc(OC)cc1 (stereo not shown) | 0.861%
Cc1nc2sc(C(c3ccco3)N3CCN(c4ccccc4)CC3)c(O)n2n1 (stereo not shown) | 6.29%
O=C1COc2ccc(S(=O)(=O)Nc3ccc4c(c3)OCO4)cc2N1 | 11.1%
CC(=O)Nc1ccc(S(=O)(=O)N2CCSC2c2ccco2)cc1 (stereo not shown) | 12.8%
C#CCN(CC=C)C(=O)c1cccc(OC2CCN(S(C)(=O)=O)CC2)c1 | 7.58%
COCCn1c(C)cc(C(=O)CN2C(=O)NC3(CCCCCC3)C2=O)c1C | -2.21%
CCOc1ccc(C(CC(=O)O)n2cnnn2)cc1OC (stereo not shown) | 12.1%
Cc1nn(CC(=O)Nc2ccc3c(c2)CCC3)c(C)c1[N+](=O)[O-] | 12.1%
CCOc1ccc(C(=O)CSc2nnc(C3CC3)n2C)cc1 | 16.4%
O=C(NNc1cccc(Cl)n1)c1ccccc1CC[N+](=O)[O-] | 12.8%
O=C(Nc1nc(-c2ccc(Cl)cc2)cs1)C1CCCO1 (stereo not shown) | 4.86%
CCOC(=O)C(=O)c1c(-c2ccccc2)nc2ccccn12 | 12.6%
CCOC(=O)C1NN=C(C(=O)c2ccccc2)C1c1ccc(OC)cc1 (stereo not shown) | 9.46%
Cc1ccc(CS(=O)(=O)Cc2ccc(C(=O)NC3CCCCCC3)o2)cc1 | -1.18%
Cc1ccccc1C(=O)Nc1c(C(=O)N(CCN(C)C)Cc2ccco2)oc2ccccc12 | -81.1%
CCOC(=O)c1nnn(-c2ccccc2C#N)c1C | 4.79%
O=C(COC(=O)C1(c2ccc(Cl)cc2)CCCC1)N1CCc2ccccc21 | 3.12%
C(#CCN1CCOCC1)COCCOC(c1ccccc1)c1ccccc1 | 12.8%
Cc1cccc(-c2nn(-c3ccccc3)cc2C(=O)NCC(c2cccs2)N2CCOCC2)c1 (stereo not shown) | 8.19%

SMILES | hERG current change (%, negative = inhibition) at 1uM
O=C(Nc1ccccc1O)c1csc2c1CCCC2 | 9.4%
CCOc1ccccc1NC(=O)COC(=O)c1cc[n+]([O-])cc1 | 17.1%
O=C1NC2(CCCCCC2)C(=O)N1Cc1ccccc1 | 11.7%
CN(C)c1ccc(/C=C(\NC(=O)c2ccccc2)C(=O)NCc2ccncc2)cc1 | 4.78%
CCOc1cccc(NC(=O)Cc2cccs2)c1 | 6.83%
CCOc1ccccc1C(=O)OC(C)C(=O)Nc1ccc(S(=O)(=O)N2CCCC2)cc1 (stereo not shown) | 5.72%
CCOC(=O)N/N=C/c1cc(C)n(-c2ccccc2)c1C | 7.84%
COC(=O)c1ccc(OCC(O)CN(CC(C)C)CC(C)C)cc1 (stereo not shown) | 6.51%
Cc1nn(CCC(=O)N2CCN(S(=O)(=O)c3ccc(Cl)cc3)CC2)c(C)c1C | 11.7%
COc1ccc(CN(C)CC(=O)NC(=O)NCc2ccccc2)cc1OC | 17.4%
Nc1ccc(S(=O)(=O)Nc2nccc(/C=C/c3ccccc3F)n2)cc1 | 13.8%
CC(C(=O)Nc1nccs1)N1C(=O)C2CC=CCC2C1=O (stereo not shown) | 8.41%
Cc1ccc(C)n1-c1ccc(N2CCOCC2)c(Br)c1 | 7.44%
O=C(c1cccn2c(=O)c3ccc(Cl)cc3nc12)N1CCC2(CC1)OCCO2 | 3.52%
NC(=O)/C(=N\O)c1ccccc1 | -8.46%
C/C(=N\N=C(N)N)c1ccc(Cl)c(Cl)c1.CC(=O)O | 2.45%
CCCCNC(=O)COC(=O)c1ccc(NS(=O)(=O)c2ccc3c(c2)OCCO3)cc1 | 16.4%
COc1cnc(-c2ccccn2)nc1Oc1ccc(Cl)cc1 | 11.4%
Cc1cc(NC(=O)COC(=O)C2CC(=O)N(c3ccc(C)c(Cl)c3)C2)no1 (stereo not shown) | 9.86%
CC(C)(C)OC(=O)NC1CCN(S(=O)(=O)c2ccc3c(c2)OCCO3)CC1 | 0.935%
COCCN1C(=O)c2oc3ccccc3c(=O)c2C1c1ccc(OC)c(OC)c1 (stereo not shown) | 2.51%
N=C1c2ccccc2CN1c1ccc(S(=O)(=O)N2CCCCC2)cc1 | -14.8%

Reference: article PMC4336329 (PLoS ONE, 2015)
